# Assay results taken from the supplement of paper PMC11417369.
# This is one part of the list.
# Test system: PF3D7_0420300 AP2 domain 1 (GST-tagged)
# Assay: gcPBM binding intensity (ln(normalized median fluorescence intensity)); higher = stronger DNA binding
# Procedure, shortened: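 Probes on an Agilent 4 × 180k array were primer-extended, double-stranded and 36 bp long, taken from intergenic genomic regions, with negative controls added. GST-tagged P. falciparum DNA-binding domains from E. coli, about 25 μg on average, were applied to the array for 1 h in 1× PBS containing 1% milk, 0.2 mg/ml BSA, 0.5% salmon testes DNA and 0.03% Triton X-100. Binding intensity, obtained after Alexa488 anti-GST antibody detection and a 488 nm scan, is the highest Masliner-normalised natural-log median intensity across replicate spots of either probe orientation.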
row,Sequence,gcPBM binding intensity (ln)
1,ATATGTAGTGTTATTTGTTCATTGTTTTAATTTTTA [CACACA_negctrl_site1394],9.74
2,TAATTATATAAATACACACACATACACCCAAATAAA [CACACA_site5819],10.1
3,GAAAAAAAAATACATACACACAATATATTTATTTAT [CACACA_site3124],9.68
4,TATTATATATAATATTGTACATTAAAATATTAAAGA [XGTACX_site3698],9
5,GGAACGTTCATATTTCCACACACAAAAAATAAATAT [CACACA_site9101],9.62
6,TTTATTTTAAAATATAGTACGCAAATAAAAATAAAT [XGTACX_site7783],9.21
7,ATATGTATTAAGTGTACACATATAATGGGTTTTCTT [CACACA_site5328],9.42
8,CTTATATTTGGACACACACACAATAAAATGAAAAAA [CACACA_site6614],9.99
9,AAATCTTCATAATAAAGTACTTAACTCTTGGTGTTA [XGTACX_site6112],9.04
10,TACACAAGAAAATTCACACACACACCGATATATATA [CACACA_site6008],10.1
11,AAAAAAAAAAAAAAAACATGCAGTTAGTGGTTTTTT [TGCATGCA_site243],9.25
12,AATAAATGGAAAAGGTGTACACAAAAAAAAGGGAAA [XGTACX_site4956],9.71
13,GAAATGGGTAAACATACACACACACCGATATATATA [CACACA_site8610],9.93
14,AAAAATTTCTATTTTTGTACTTACTTTTTAGTAATA [XGTACX_site5236],8.94
15,TAACAATTATGCTGGTGTACGTTTGAAATTGGGTAT [XGTACX_site6846],9.33
16,AACATCAAAATATGCACACAAACAATTAGCGGTAGT [CACACA_site2521],9.89
17,ATATTTTATTTTTAAAGTACAAAAGAAAAGAATAAT [XGTACX_site8247],9.27
18,GATTTACATTTTGATGAAAATAATAAAATGTGGAAA [TGCATGCA_negctrl_site409],9.04
19,AAAAAAAAAGACAAAAGTACAAAGGTTCATAATTTA [XGTACX_site3978],9.21
20,TGTACAAATATGTACACACACACATATTTATTTATA [CACACA_site6419],9.86
21,AAAAAACAAAAAAATACACACATAAAAAGGTTTTAG [CACACA_site3584],9.68
22,TTATAAGATGATTATAAAATCAAATTCATTCTTTTA [CACACA_negctrl_site1338],8.6
23,AAATATGTCAAATATACACACATAATAAATATAATA [CACACA_site2310],9.52

row,Sequence,gcPBM binding intensity (ln)
1,TAAACATAACAAAGGAGTACAAAACTTGATCAGTTC [XGTACX_site3114],9.52
2,TATGTATAAAAATAATGTACAAAATATATTATATGT [XGTACX_site2794],9.51
3,ATCTTAGTTGAAATATAGAATTTATAATAAAAGTTA [GTGCAC_negctrl_site122],8.87
4,ATACTATAATAATACACACTCATTAGATATATAAAG [CACACA_site7787],9.55
5,TGTATTTATTAATGTACACACATGCGTATGTTCGTT [CACACA_site5892],9.61
6,GAAGGAAATAAATCAACACACATATATTATATATAT [CACACA_site2188],9.57
7,TATATAATATATTTATGTACGTATTTAAAAATTTAT [XGTACX_site160],9
8,TGAAATTTGTTATATGCATGTAAAATATTACGACGA [TGCATGCA_site201],9.18
9,TTGTGTGAGCAAGTAGTGCATAATATAAATAAAAAA [GTGCAC_site9802],9.26
10,CATAAATATTTGTGTTGTACAAATATATATATTTAT [XGTACX_site7363],9.2
11,AAAATTGAAGGTAGAAGTACATATTTATTTCAATAA [XGTACX_site8732],9.11
12,ATAGAATATTTTATTACACACAGAATAATAAAAAAT [CACACA_site6190],9.49
13,TTATTTTTTTTAGCATATACAAATATATATATATAT [GTGCAC_negctrl_site4],9.12
14,CTAAAAGGATGATGAATGCACTATTATTTATATGGA,9.12
15,AAGAATTATTTTTTATGTACTTATATGTCAATTTTC [XGTACX_site6676],9.3
16,CACAGACACGGACACACACACATATATATATATATA [CACACA_site5248],9.86
17,ATACACACATATATGTGTACATATACATATATATAT [XGTACX_site6744],9.64
18,ATAATATGAAGAAGCACACTCAATTAAATACAGATA [CACACA_site4690],9.42
19,AACAAAATAGGGAACACACACATGTCGATATATAAA [CACACA_site7265],9.88
20,ATATTCTAAATAAAGGGTACACAAAAATAATTAAAG [XGTACX_site5529],9.47
21,ATTGTGGATATTCTTACACACAAATTTATATATAAA [CACACA_site2601],9.43
22,TTATGAATACTTCAAGTGCATTTATTTTATATGACA,9.1
